Measurements reported in PubChem BioAssay AID588855 (National Center for Advancing Translational Sciences (NCATS), 2011).
The whole screen tested about 410,000 compounds, of which about 5,000 (1.2%) were called active. Inconclusive results, whose numbers are uncertain, are shown with a selection of clear calls. The call rests on the fitted dose curve; in most records, active means well fitted inhibition curve with a large enough effect; inconclusive means small, poorly fitted or top-dose-only effect; inactive means no such curve, though single readings can be large or run the other way. Potencies of inconclusive entries are doubtful fits and often do not repeat.

Assay: qHTS for Inhibitors of TGF-b; further: nearly all actives have a fitted effect of over 65% in size
Details: HepG2 CAGA-GFP TGF-b/SMAD3 reporter, GFP fluorescence, 18 h, TGF-beta stimulated, 500 pg/mL final; series mostly up to 46.1 µM; activity, negative = inhibition: at the top concentration
From the text: TGF-b is a main component in the TGF-b signaling pathway which plays diverse roles in cellular and development pathways. TGF-b is the mediated by the transcription factors Smads. Although the Smad-dependent pathway is the primary canonical TGF-b signaling node, TGF-b1 can also activate alternative signaling pathways, including those involving MAPK (ERK, JNK and p38). This interaction may mediate or enhance Smad-dependent responses, or can exert Smad-independent effects. The complexity of this signaling cascade allows the TGF-b superfamily to perform unique, overlapping or redundant functions. We believe that targeting the TGF-beta pathway at the Smad-transcription factor level may eliminate the consequences of disrupting the entire pathway and offer specificity without affecting other signaling pathways. Smad3 is the primary transducer of TGF-b's signals and Smad3 regulates many functions attributed to TGF-b signaling. We hypothesize that Smad3 inhibitors will selectively eliminate Smad3-specific TGF-beta signals without undesired off-target effects. We aim to identify Smad3-small molecule antagonists using a quantitative high throughput screening (qHTS) approach.
A high-throughput assay was developed to screen the NIH Molecular Libraries Small Molecule Repository (MLSMR). This is a cell based assay, where TGF-b is tagged with GFP. A counterscreen is run that looks at cytotoxicity (please see summary AID).
MH087449NIH Chemical Genomics Center [NCGC]
NIH Molecular Libraries Probe Centers Network [MLPCN]
Assay Submitter (PI): Sushil Rane, National Institute of […]
Suspensions of trypsinized HEPG2 CAGA-GFP cells were dispensed into white, tissue culture-treated, solid 1536-well plates at 5uL/well (1000 cells/well final concentration) in DMEM medium supplemented with 1% FBS. Plates were incubated at 37 degrees C for 2 hours, after which 23 nL of compounds or DMSO were delivered to each well using a pin tool. One uL of recombinant TGF-beta in DMEM (1% FBS) was then dispensed (500 pg/mL final concentration), and plates were incubated at 37 degrees C for 18 hours. The plates were measured on an Acumen eX3 Explorer plate reader for GFP fluorescence (ex488/em500-530). GFP values were calculated by determining the mean GFP fluorescence of individual cells, and compiling these values for each well to determine a total well GFP signal. The %Activity was determined from the corrected fluorescence values. A titration of the known TGF-B inhibitor SB431542 was included to monitor plate performance, while unstimulated HEPG2 (-TGF-B) control wells were used to normalize %Activity of identified inhibitors; unstimulated wells corresponded to 100%Activity (full inhibition), while stimulated cell controls (+DMSO) were used to normalize 0%Activity (no inhibition).
Concentration-response curves were fitted to the signals arising from the resulting fluorescence. The concentration-effect curves were then classified based on curve quality (r2), response magnitude and degree of measured activity, and compounds were subsequently categorized based on their curve class.
Potency means the concentration at half of the fitted maximal effect; tags describe the fitted curve by direction and shape.

Row | Compound | Potency | activity, negative = inhibition
1 | CSc1nc2c(c(=O)n1-c1ccc(C)cc1)SCC2 | inconclusive: 17.8 µM [inhibitor, single point] | 
2 | O=C1Nc2ccccc2/C1=N/c1sc2c(c1C(=O)NCCc1ccccc1)CCCC2 |  | inactive: -16.7%
3 | COc1cc2ncnc(NCCc3ccccc3)c2cc1OC | inconclusive: 35.5 µM [inhibitor, single point] | 
4 | O=S(=O)(c1ccccc1Br)N(Cc1ccccc1)Cc1ccco1 | inconclusive: 14.1 µM [inhibitor, partial curve] | 
5 | CCN(CC)S(=O)(=O)c1cc(C(=O)Nc2ccc(Cl)cn2)ccc1C |  | inactive: -6.78%
6 | COC(=O)C1=C[C@@H](C(=O)OC)[C@@H]2C3=C(C(=O)C2(C)C)[C@H](C)n2c(=O)n(-c4ccccc4)c(=O)n2[C@@H]3C1 | inconclusive: 12.6 µM [inhibitor, partial curve, poor fit] | 
7 | COc1cccc(-c2cc(C(=O)NCCCn3ccnc3)no2)c1 |  | inactive: -3.09%
8 | Cc1ccc2c(CC(=O)N(Cc3ccc(N(C)C)cc3)Cc3ccco3)coc2c1C | inconclusive: 14.1 µM [inhibitor, single point] | 
9 | Cc1ccc(OCC(=O)N/N=C\c2c(C)[nH]n(-c3ccccc3)c2=O)c([N+](=O)[O-])c1 | inconclusive: 35.5 µM [inhibitor, single point] | 
10 | FC(F)Sc1nc2ccccc2[nH]1 |  | inactive: -5.79%
11 | CCc1ccc(-c2cc(C(=O)NN3CCOCC3)c3ccccc3n2)cc1 |  | inactive: 8.27%
12 | CCOC(=O)c1c(S(=O)(=O)N2CCC(C(=O)NCc3cccc(OC)c3)CC2)c(C)n(C)c1C | inconclusive: 2.51 µM [inhibitor, single point] | 
13 | CCC(C)(C)n1nnnc1C(c1cc2cc(OC)c(OC)cc2[nH]c1=O)N1CCc2ccccc21 (centres undefined) | inconclusive: 17.8 µM [inhibitor, single point] | 
14 | COc1ccccc1CN(C)C(=O)c1ccc(COc2ccccc2)cc1 | inconclusive: 10 µM [inhibitor, partial curve, poor fit] | 
15 | O=C(N/N=C/c1ccc2c(c1)OCO2)c1ccc2ccccc2n1 | inconclusive: 6.31 µM [inhibitor, single point] | 
16 | O=c1cc(-c2ccccc2Cl)oc2c(NS(=O)(=O)c3cccs3)ccc(O)c12 | inconclusive: 3.55 µM [inhibitor, single point] | 
17 | CN(C)c1ccc(NC(=O)Nc2ccc3c(c2)c(=O)n(C)n3Cc2ccccc2)cc1 |  | inactive: -1.91%
18 | CC1=C(C(=O)OC2CCCC2)C(c2c(F)cccc2Cl)CC(=O)N1 (centres undefined) | inconclusive: 0.631 µM [inhibitor, full curve, poor fit] | 
19 | Cc1ccc(Cn2nc3n(c2=O)-c2cc(Cl)ccc2OC3)cc1 |  | inactive: 1.5%
20 | O=C1C=CC(=O)N1c1ccccc1N1C(=O)C=CC1=O | inconclusive: 35.5 µM [inhibitor, single point] | 
21 | Cc1nc(NC(=O)c2cc3ccccc3o2)sc1C |  | inactive: 0.234%
22 | COc1cccc(C(=O)NC2CCCc3ccccc32)c1OC (centres undefined) |  | inactive: 0.242%
23 | Cc1cc(C)cc(NC(=O)COc2cccc3c(=O)n(C)ccc23)c1 | inconclusive: 5.62 µM [inhibitor, single point] | 

Row | Compound | Potency | activity, negative = inhibition
24 | Cc1cc(Cl)ccc1-c1cc2nc(NCCCN(C)C)n(C)c(=O)c2s1 | inconclusive: 35.5 µM [inhibitor, single point] | 
25 | O=C(CCS(=O)(=O)Cc1ccccc1)Nc1nnc(C(F)(F)F)s1 | inconclusive: 14.1 µM [inhibitor, single point] | 
26 | COc1ccc(-c2ccc(SCC(=O)N3CCOCC3)nn2)cc1OC | inconclusive: 35.5 µM [inhibitor, single point] | 
27 | CC(C)CSc1n[nH]c(=S)s1 | inconclusive: 5.62 µM [inhibitor, single point] | 
28 | Cc1ccccc1Cn1c(CN2CCC(C(=O)NCc3ccc(Cl)cc3)CC2)cc2ccccc21 |  | inactive: -13.6%
29 | CCCCN(C)C(=O)c1ccc2c(=O)n3nc(Nc4cc(C)ccc4C)sc3nc2c1 | inconclusive: 17.8 µM [inhibitor, single point] | 
30 | COc1ccc(C(=O)N2CCN(C)C(C)C2)cc1OC1CCN(C(C)=O)CC1 (centres undefined) | inconclusive: 3.98 µM [inhibitor, full curve, poor fit] | 
31 | CN(C)c1cccc(C(=O)Nc2cccc(S(=O)(=O)NC3=NCCC3)c2)c1 | inconclusive: 6.31 µM [inhibitor, single point] | 
32 | Cc1ccc(S(=O)(=O)ON2C(=O)c3ccccc3C2=O)c(C)c1 | inconclusive: 25.1 µM [inhibitor, single point] | 
33 | CCOC(=O)Cc1ccc(Nc2nc3cc(-c4sccc4C)sc3c(=O)n2C)cc1 | inconclusive: 14.1 µM [inhibitor, single point] | 
34 | Cc1ccc(NC(=O)CCc2c(C)nn(-c3ccc(N4CCCCC4)nn3)c2C)cc1 |  | inactive: -14.9%
35 | COc1ccc(Cl)cc1NC(=S)N1CCCC1 |  | inactive: 0.434%
36 | COc1ccc(C(=O)c2cc(C(C)=O)c(Nc3ccccc3)s2)cc1 |  | inactive: 0%
37 | CC(=O)c1cccc(S(=O)(=O)NCC(C)(C)N2CCOCC2)c1 |  | inactive: -0.022%
38 | CC(=O)C1=C(C)NC(SCc2cccc([N+](=O)[O-])c2)=C(C#N)C1c1ccco1 (centres undefined) |  | inactive: -11.2%
39 | CCS(=O)(=O)n1nc(-c2ccc(Cl)cc2)nc1SCc1ccccc1 | inconclusive: 35.5 µM [inhibitor, single point] | 
40 | CC(C)(C)OC(=O)N[C@H](C(=O)OC(C)(C)C)c1ccccc1 | inconclusive: 1.41 µM [inhibitor, partial curve, poor fit] | 
41 | O=C1CCCc2oc3c(cc(NS(=O)(=O)c4ccc5c6c(cccc46)C(=O)N5)c4ccccc43)c21 | inconclusive: 35.5 µM [inhibitor, single point] | 
42 | CCOC(=O)c1cc(S(=O)(=O)Nc2ccccc2)[nH]n1 |  | inactive: 49.3%
43 | COc1ccc(NC(=O)CSc2nnc(-c3ccncc3)n2-c2ccccc2)cc1 | inconclusive: 6.31 µM [inhibitor, single point] | 
44 | CCCCNC(=S)Nc1ccc(C(F)(F)F)cc1 |  | inactive: -60.8%
45 | Cc1ccc(C)c(Cn2c(=O)n(CCC(=O)NCc3ccco3)c(=O)c3sccc32)c1 | inconclusive: 6.31 µM [inhibitor, single point] | 
46 | Cc1nn(Cc2ccccc2)c(N)c1-c1ccccc1 | inconclusive: 3.16 µM [inhibitor, full curve, poor fit] | 

Row | Compound | Potency | activity, negative = inhibition
47 | Cc1ccc(NC(=O)COc2cccc(C)c2C)cc1S(=O)(=O)N1CCCCCC1 | inconclusive: 8.91 µM [inhibitor, partial curve, poor fit] | 
48 | COc1ccccc1CNC(=O)c1ccc(N2CCCC2)c(NC(=O)NCc2ccc(C)cc2)c1 | inconclusive: 10 µM [inhibitor, single point] | 
49 | Cc1ccc(-n2ncc(C(=O)N3CCc4ccccc4C3)c2NC(=O)c2ccco2)cc1C | inconclusive: 15.8 µM [inhibitor, single point] | 
50 | CN(C)c1ccc(Cn2ccc3ccccc32)cc1 | inconclusive: 20 µM [inhibitor, single point] | 
51 | COc1cc(NC2c3ccccc3C(=O)N2Cc2ccccc2Cl)cc(OC)c1 (centres undefined) | inconclusive: 15.8 µM [inhibitor, single point] | 
52 | CCOC(=O)CNC(=O)N1CCN(S(=O)(=O)c2ccc3c(ccn3C)c2)CC1 |  | inactive: 1.08%
53 | CC(C)Cn1c(N)c(C(=O)COC(=O)c2cc(S(=O)(=O)N3CCOCC3)ccc2Br)c(=O)n(C)c1=O | inconclusive: 15.8 µM [inhibitor, single point] | 
54 | COc1ccc(C2(CNC(=O)c3cc([N+](=O)[O-])cc([N+](=O)[O-])c3)CCCC2)cc1OC |  | inactive: -19.4%
55 | Cc1ccnc(NC(=O)COc2ccc(Cl)cc2)n1 | inconclusive: 20 µM [inhibitor, single point] | 
56 | O=C(NN1C(=O)c2ccccc2NC1c1cccnc1)c1ccc([N+](=O)[O-])cc1 (centres undefined) | inconclusive: 11.2 µM [inhibitor, partial curve] | 
57 | Cc1cc(OCC(=O)Nc2ccncc2)c(C)cc1Br |  | inactive: -4.76%
58 | CCCCN(C(=O)c1ccccc1Br)C(c1ccc(OC)cc1)c1nc2ccccc2[nH]1 (centres undefined) | inconclusive: 14.1 µM [inhibitor, single point] | 
59 | Clc1ccc(C(Cn2ccnc2)OCc2c(Cl)cccc2Cl)c(Cl)c1 (centres undefined) | inconclusive: 35.5 µM [inhibitor, single point] | 
60 | COc1ccccc1CC1(C)C(=O)Nc2ccc(S(=O)(=O)NC3CCCCC3)cc21 (centres undefined) |  | inactive: -13.1%
61 | CCn1c(SCC(=O)Nc2cc(C)ccc2F)nnc1-c1ccccc1O |  | inactive: -12.6%
62 | CCN(c1ccc(OC)cc1)S(=O)(=O)c1ccc2[nH]c3c(c2c1)CCCCC3 | inconclusive: 35.5 µM [inhibitor, single point] | 
63 | Cc1c(Cl)cccc1NC(=O)CNC(=O)c1ccc(F)cc1 | inconclusive: 6.31 µM [inhibitor, single point] | 
64 | Cc1cccc2c1-c1sc(C(=O)NCCCN3CCc4ccccc4C3)cc1CO2 | inconclusive: 35.5 µM [inhibitor, single point] | 
65 | Cc1nc2ccn(Cc3ccco3)c(=O)c2cc1C(=O)NCc1ccc(Cl)cc1 | active: 10 µM | 
66 | Cc1ccc(-c2nnc(Nc3ccc(OCC(N)=O)cc3)c3ccccc23)cc1S(N)(=O)=O |  | inactive: 2.53%
67 | COc1ccc2nc(/N=C(\N)NC(=O)Nc3ccccc3)nc(C)c2c1 | inconclusive: 11.2 µM [inhibitor, partial curve] | 
68 | CCOC(=O)N1CCN(S(=O)(=O)c2ccc(Br)s2)CC1 | inconclusive: 14.1 µM [inhibitor, partial curve, poor fit] | 
69 | Cc1ccc(CNC(=O)c2ccc3c(c2)CCN3S(=O)(=O)c2ccc(Br)cc2)cc1 | inconclusive: 0.1 µM [inhibitor, full curve, poor fit] | 
